# The other results are listed elsewhere or left out.
# B1: GSL-I (Griffonia simplicifolia) (protein)
# chain: FNLPNFWSDVKDNIIFQGDANTTAGTLQLCKTNQYGNPLQYRAGRALYSDPVQLWDNKTGSVASFYTEFTFFLKITGDGPADGLAFFLAPPDSDVKDAGAYLGLFNKSTATQPSKNQVVAVEFDTWKNTDFPEPSYRHIGINVNSIVSVATKRWEDSDIFSGKIATARISYDGSAKILTVVLSYPDGADYILSHSVDLSKNLPNPIRVGISASTGANQFLTVYVLSWRFSSALQSTSVNAAMGPEIIRTVV
# Legend:
# Assay in all cases: glycan array binding signal (z-score within array); higher = stronger binding
# Conditions in all cases: glycan notation: IUPAC condensed, linker removed
# [1] = molecular target: GlcNAc(b1-3)Gal(b1-4)GlcNAc(b1-3)Gal(b1-4)GlcNAc
# Procedure, shortened: (§1)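 Negative Z-scores can be read as non-binding. The Z-score is calculated within each array and then averaged across arrays of one protein sequence at different concentrations or buffers and across linkers. Arrays, 3228 in all, were curated from the Consortium for Functional Glycomics database and kept only where the protein sequence was available.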
# [2] = molecular target: GlcNAc(b1-3)Gal(b1-4)GlcNAc(b1-3)Gal(b1-4)GlcNAc(b1-2)Man(a1-3)[GlcNAc(b1-3)Gal(b1-4)GlcNAc(b1-3)Gal(b1-4)GlcNAc(b1-2)Man(a1-6)]Man(b1-4)GlcNAc(b1-4)GlcNAc
# Procedure, shortened: as §1
# [3] = molecular target: GlcNAc(b1-3)Gal(b1-4)GlcNAc(b1-3)Gal(b1-4)GlcNAc(b1-2)Man(a1-3)[GlcNAc(b1-3)Gal(b1-4)GlcNAc(b1-3)Gal(b1-4)GlcNAc(b1-2)Man(a1-6)]Man(b1-4)GlcNAc(b1-4)[Fuc(a1-6)]GlcNAc
# Procedure, shortened: as §1
# [4] = molecular target: GlcNAc(b1-3)Gal(b1-4)GlcNAc(b1-3)Gal(b1-4)GlcNAc(b1-2)[GlcNAc(b1-3)Gal(b1-4)GlcNAc(b1-3)Gal(b1-4)GlcNAc(b1-6)]Man(a1-6)[GlcNAc(b1-3)Gal(b1-4)GlcNAc(b1-3)Gal(b1-4)GlcNAc(b1-2)Man(a1-3)]Man(b1-4)GlcNAc(b1-4)[Fuc(a1-6)]GlcNAc
# Procedure, shortened: as §1
# [5] = molecular target: GlcNAc(b1-3)Gal(b1-4)GlcNAc(b1-3)Gal(b1-4)GlcNAc(b1-3)Gal(b1-4)GlcNAc(b1-2)Man(a1-3)[GlcNAc(b1-3)Gal(b1-4)GlcNAc(b1-3)Gal(b1-4)GlcNAc(b1-3)Gal(b1-4)GlcNAc(b1-2)Man(a1-6)]Man(b1-4)GlcNAc(b1-4)GlcNAc
# Procedure, shortened: as §1
# [6] = molecular target: GlcNAc(b1-3)Gal(b1-4)GlcNAc(b1-3)Gal(b1-4)GlcNAc(b1-3)Gal(b1-4)GlcNAc(b1-2)Man(a1-3)[GlcNAc(b1-3)Gal(b1-4)GlcNAc(b1-3)Gal(b1-4)GlcNAc(b1-3)Gal(b1-4)GlcNAc(b1-2)Man(a1-6)]Man(b1-4)GlcNAc(b1-4)[Fuc(a1-6)]GlcNAc
# Procedure, shortened: as §1
# [7] = molecular target: GlcNAc(b1-3)Gal(b1-4)GlcNAc(b1-3)Gal(b1-4)GlcNAc(b1-3)Gal(b1-4)GlcNAc(b1-2)[GlcNAc(b1-3)Gal(b1-4)GlcNAc(b1-3)Gal(b1-4)GlcNAc(b1-3)Gal(b1-4)GlcNAc(b1-6)]Man(a1-6)[GlcNAc(b1-3)Gal(b1-4)GlcNAc(b1-3)Gal(b1-4)GlcNAc(b1-3)Gal(b1-4)GlcNAc(b1-2)Man(a1-3)]Man(b1-4)GlcNAc(b1-4)[Fuc(a1-6)]GlcNAc
# Procedure, shortened: as §1
# [8] = molecular target: GlcNAc(b1-3)Gal(b1-4)GlcNAc(b1-3)Gal(b1-4)GlcNAc(b1-3)Gal(b1-4)GlcNAc(b1-3)Gal(b1-4)GlcNAc(b1-2)Man(a1-3)[GlcNAc(b1-3)Gal(b1-4)GlcNAc(b1-3)Gal(b1-4)GlcNAc(b1-3)Gal(b1-4)GlcNAc(b1-3)Gal(b1-4)GlcNAc(b1-2)Man(a1-6)]Man(b1-4)GlcNAc(b1-4)GlcNAc
# Procedure, shortened: as §1
# [9] = molecular target: GlcNAc(b1-3)Gal(b1-4)GlcNAc(b1-3)Gal(b1-4)GlcNAc(b1-3)Gal(b1-4)GlcNAc(b1-3)Gal(b1-4)GlcNAc(b1-2)Man(a1-3)[GlcNAc(b1-3)Gal(b1-4)GlcNAc(b1-3)Gal(b1-4)GlcNAc(b1-3)Gal(b1-4)GlcNAc(b1-3)Gal(b1-4)GlcNAc(b1-2)Man(a1-6)]Man(b1-4)GlcNAc(b1-4)[Fuc(a1-6)]GlcNAc
# Procedure, shortened: as §1
# [10] = molecular target: GlcNAc(b1-3)Gal(b1-4)GlcNAc(b1-3)Gal(b1-4)GlcNAc(b1-3)Gal(b1-4)GlcNAc(b1-3)Gal(b1-4)GlcNAc(b1-2)[GlcNAc(b1-3)Gal(b1-4)GlcNAc(b1-3)Gal(b1-4)GlcNAc(b1-3)Gal(b1-4)GlcNAc(b1-3)Gal(b1-4)GlcNAc(b1-6)]Man(a1-6)[GlcNAc(b1-3)Gal(b1-4)GlcNAc(b1-3)Gal(b1-4)GlcNAc(b1-3)Gal(b1-4)GlcNAc(b1-3)Gal(b1-4)GlcNAc(b1-2)Man(a1-3)]Man(b1-4)GlcNAc(b1-4)[Fuc(a1-6)]GlcNAc
# Procedure, shortened: as §1
# [11] = molecular target: GlcNAc(b1-3)Gal(b1-4)GlcNAc(b1-3)Gal(b1-4)GlcNAc(b1-3)GalNAc
# Procedure, shortened: as §1
# [12] = molecular target: GlcNAc(b1-3)Gal(b1-4)GlcNAc(b1-3)GalNAc
# Procedure, shortened: as §1
# [13] = molecular target: GlcNAc(b1-3)Gal(b1-4)GlcNAc(b1-3)[GlcNAc(b1-3)Gal(b1-4)GlcNAc(b1-3)]GalNAc
# Procedure, shortened: as §1
# [14] = molecular target: GlcNAc(b1-3)Gal(b1-4)GlcNAc(b1-6)[Gal(b1-3)]GalNAc
# Procedure, shortened: as §1
# [15] = molecular target: GlcNAc(b1-3)Gal(b1-4)GlcNAc(b1-6)[GlcNAc(b1-3)Gal(b1-3)]GalNAc
# Procedure, shortened: as §1
# [16] = molecular target: GlcNAc(b1-3)Gal(b1-4)GlcNAc(b1-6)[GlcNAc(b1-3)]Gal(b1-4)GlcNAc
# Procedure, shortened: as §1
# GlcNAc(b1-3)GalNAc = molecular target: GlcNAc(b1-3)GalNAc
# Procedure, shortened: as §1
# GlcNAc(b1-3)Man = molecular target: GlcNAc(b1-3)Man
# Procedure, shortened: as §1
# [17] = molecular target: GlcNAc(b1-3)[GlcNAc(b1-4)][GlcNAc(b1-6)]GlcNAc
# Procedure, shortened: as §1
# [18] = molecular target: GlcNAc(b1-3)[GlcNAc(b1-6)]Gal(b1-4)GlcNAc
# Procedure, shortened: as §1
# [19] = molecular target: GlcNAc(b1-3)[GlcNAc(b1-6)]GalNAc
# Procedure, shortened: as §1
# [20] = molecular target: GlcNAc(b1-3)[GlcNAc(b1-6)]GlcNAc(b1-4)GlcNAc
# Procedure, shortened: as §1
# [21] = molecular target: GlcNAc(b1-4)Gal(b1-4)GlcNAc
# Procedure, shortened: as §1
# GlcNAc(b1-4)GlcNAc = molecular target: GlcNAc(b1-4)GlcNAc
# Procedure, shortened: as §1
# [22] = molecular target: GlcNAc(b1-4)GlcNAc(b1-4)GlcNAc
# Procedure, shortened: as §1
# [23] = molecular target: GlcNAc(b1-4)GlcNAc(b1-4)GlcNAc(b1-4)GlcNAc(b1-4)GlcNAc
# Procedure, shortened: as §1
# [24] = molecular target: GlcNAc(b1-4)GlcNAc(b1-4)GlcNAc(b1-4)GlcNAc(b1-4)GlcNAc(b1-4)GlcNAc
# Procedure, shortened: as §1
# [25] = molecular target: GlcNAc(b1-4)[GlcNAc(b1-6)]GalNAc
# Procedure, shortened: as §1
# [26] = molecular target: GlcNAc(b1-6)Gal(b1-4)GlcNAc
# Procedure, shortened: as §1
# GlcNAc(b1-6)GalNAc = molecular target: GlcNAc(b1-6)GalNAc
# Procedure, shortened: as §1
# [27] = molecular target: GlcNAc6S(b1-3)Gal(b1-4)GlcNAc
# Procedure, shortened: as §1
# Kdn(a2-3)Gal(b1-3)GalNAc = molecular target: Kdn(a2-3)Gal(b1-3)GalNAc
# Procedure, shortened: as §1
# Kdn(a2-3)Gal(b1-3)GlcNAc = molecular target: Kdn(a2-3)Gal(b1-3)GlcNAc
# Procedure, shortened: as §1
# Kdn(a2-3)Gal(b1-4)Glc = molecular target: Kdn(a2-3)Gal(b1-4)Glc
# Procedure, shortened: as §1
# Kdn(a2-3)Gal(b1-4)GlcNAc = molecular target: Kdn(a2-3)Gal(b1-4)GlcNAc
# Procedure, shortened: as §1
# [28] = molecular target: Kdn(a2-3)Gal(b1-4)[Fuc(a1-3)]GlcNAc
# Procedure, shortened: as §1
# Kdn(a2-6)Gal(b1-4)GlcNAc = molecular target: Kdn(a2-6)Gal(b1-4)GlcNAc
# Procedure, shortened: as §1
binder,measurement,setting,value
B1,glycan array binding signal (z-score),[1],-0.181
same,glycan array binding signal (z-score),[2],0.363
same,glycan array binding signal (z-score),[3],-0.169
same,glycan array binding signal (z-score),[4],0.036
same,glycan array binding signal (z-score),[5],-0.117
same,glycan array binding signal (z-score),[6],0.086
same,glycan array binding signal (z-score),[7],-0.004
same,glycan array binding signal (z-score),[8],-0.1
same,glycan array binding signal (z-score),[9],0.173
same,glycan array binding signal (z-score),[10],0.004
same,glycan array binding signal (z-score),[11],-0.315
same,glycan array binding signal (z-score),[12],-0.299
same,glycan array binding signal (z-score),[13],-0.249
same,glycan array binding signal (z-score),[14],-0.235
same,glycan array binding signal (z-score),[15],-0.254
same,glycan array binding signal (z-score),[16],-0.255
same,glycan array binding signal (z-score),GlcNAc(b1-3)GalNAc,-0.23
same,glycan array binding signal (z-score),GlcNAc(b1-3)Man,-0.193
same,glycan array binding signal (z-score),[17],-0.251
same,glycan array binding signal (z-score),[18],-0.218
same,glycan array binding signal (z-score),[19],-0.21
same,glycan array binding signal (z-score),[20],-0.32
same,glycan array binding signal (z-score),[21],-0.258
same,glycan array binding signal (z-score),GlcNAc(b1-4)GlcNAc,-0.174
same,glycan array binding signal (z-score),[22],-0.114
same,glycan array binding signal (z-score),[23],0.002
same,glycan array binding signal (z-score),[24],-0.165
same,glycan array binding signal (z-score),[25],-0.229
same,glycan array binding signal (z-score),[26],-0.222
same,glycan array binding signal (z-score),GlcNAc(b1-6)GalNAc,-0.241
same,glycan array binding signal (z-score),[27],-0.22
same,glycan array binding signal (z-score),Kdn(a2-3)Gal(b1-3)GalNAc,-0.069
same,glycan array binding signal (z-score),Kdn(a2-3)Gal(b1-3)GlcNAc,-0.169
same,glycan array binding signal (z-score),Kdn(a2-3)Gal(b1-4)Glc,-0.201
same,glycan array binding signal (z-score),Kdn(a2-3)Gal(b1-4)GlcNAc,-0.133
same,glycan array binding signal (z-score),[28],-0.176
same,glycan array binding signal (z-score),Kdn(a2-6)Gal(b1-4)GlcNAc,-0.152

# Source: the supplement of paper PMC8728848
